The test system of the data set is ATP. The data set can be described thus: switch fluorescence ratio, 500 uM ATP over buffer (Cy3 cluster intensity, sum of 5 cycles each) (fold (ratio)); higher = stronger signal-on switching upon ATP binding; sequences stand for … in TCGTCGGCAGCGTCAGATGTGTATAAGAGACAGTTTTTTTTTTTTTTTTTTTTTTTTT…TC. As to conditions: aptamer strand: ATP DNA aptamer (quencher-CACCTGGGGGAGTATTGCGGAGGAAGG + anchor), 100 nM annealed; ATP concentration: 500 uM; one replicate. The procedure, abridged:
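For every switch-domain sequence, the fluorescence ratio is the mean of per-cluster values, each being summed target-cycle Cy3 intensity over summed buffer-cycle Cy3 intensity. Clusters outside 100-1000 RFU were excluded. On a modified Illumina MiSeq flow-cell, the Cy3-labelled switching-strand clusters were annealed to 100 nM quencher-labelled ATP aptamer, imaged in selection buffer and then after 15 min with 500 uM ATP at 22 °C. Five such cycles were run, with NaOH stripping and re-annealing between them.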

Sequences with one replicate were seen in a single cluster, so their values are uncertain.
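Note: ATP exposure 15 min at 22 °C before imaging.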

GTAATTAAA: the switch fluorescence ratio is 1.04.
The value for GCAGCAGGTT was 1.06; that for ATGTGCTCTT was 0.937.
The value for CATCCTGTTT was 1.01.
As to TGATAGATCC, the switch fluorescence ratio is 1.01.
With CAGGAAGTCT, the switch fluorescence ratio worked out at 1.02.
In the case of GGGTTCCCCG it was 0.981.
The value for CGCATAATAT was 2.05; that for GTATGCATTT was 0.973.
In the case of GAGGTAATGC it was 1.93.
With GATCGAACAA, the switch fluorescence ratio stood at 0.992.
TATTAGTGT: the switch fluorescence ratio was determined as 0.978.
The value for CCTGGACGCA was 2.41.
In the case of CCCCTCGACT it was 1.04; in that of GACTATTCCC, 0.99; in that of ACTTATTGCT, 0.997.
AAGAAGTATC: the switch fluorescence ratio was found to be 0.978.
In the case of TATATAGCGT it was 1.01; in that of ATACTAACGA, 1.29; in that of TGAGATATG, 0.997.
The value for AGAACCACCA was 1.12; that for TATCGAGTAA was 0.99; that for CAATGAACGG was 1.07.
The value for ACGCCGATCT was 1.08.
With ATGGGGTTTA, the switch fluorescence ratio was found to be 0.99.
The value for TAGCCGGAGA was 1.05; that for ATCCCTGATG was 1.02.
On to TGTTTAACCC, for which the switch fluorescence ratio came out at 1.01.
On to ATGGGCAAAG, for which the switch fluorescence ratio worked out at 0.987.
The value for GCTGATTG was 0.985.
The value for TTTCAATCAA was 1.11; that for CGACGGGGAC was 4.35.
On to TTACTTCTT, for which the switch fluorescence ratio came out at 1.
In the case of TTATCGTGGA it was 0.97.
Consider TAATACAATC, for which the switch fluorescence ratio turned out to be 1.03.
The value for GTATGATATA was 0.995; that for AATCGCTAA was 1.09; that for GCTTGCGATT was 1.03.
Take GGTATCGTAA: the switch fluorescence ratio worked out at 0.985.
In the case of GGATCAATTG it was 0.982; in that of GTGTACCTTG, 1; in that of GCTGGAGACC, 0.997.
With ACGGGAGAAA, the switch fluorescence ratio came to 1.05.
The value for AGTGGGTAGC was 1.04.
The value for CGATCCCGCC was 1.16; that for TAGGGTCGGC was 0.975; that for TTGGAAGTCG was 0.993.
In the case of GTGAGAGGAA, the switch fluorescence ratio was 1.02.
With TTGAAAGAAG, the switch fluorescence ratio worked out at 1.
For the sequence GAGTTACACA, the switch fluorescence ratio was found to be 1.01.
On to CACGAGTCTA, for which the switch fluorescence ratio came out at 1.01.
Regarding ACTCGGTAAC, the switch fluorescence ratio turned out to be 1.1.
CAGGCGGACC: the switch fluorescence ratio amounted to 1.
In the case of GGTACCGAGG it was 0.998; in that of TGTTACCGGT, 0.965; in that of TATACCAGTA, 0.992.
In the case of GGGCGAGATA it was 1; in that of GGGTAGGGCT, 1.03; in that of AGCTCTTACC, 1.
In the case of GAAACAACGT it was 1.02.
TTGGCTCATT: the switch fluorescence ratio was 1.02.
In the case of TCTGTGCATG it was 1.04; in that of TTAGGGCCGT, 0.963.
In the case of CGTTGGGGAA it was 0.999; in that of GATTTATCG, 0.963; in that of CAATAAGTCA, 1.
The value for TTGCCGAATC was 1.

Source of the values: the supplement of paper PMC10126150.
